The values below come from PubChem BioAssay AID2060605 (Molecular Pharmacology Branch, DTP, NCI, 2025).

This assay deals with 947758-054-R-J2-PDC spheroid growth, percent test/control. Briefly: Anticancer human tumor 947758-054-R-J2-PDC patient-derived colon adenocarcinoma cell line growth inhibition [CLK]. The note with it: for viability, T/C: stronger effect = lower value, spheroids with HUVEC and MSC. The source says: A high-throughput screen of multi-cell type tumor spheroids was designed to identify active combinations of […] and targeted small molecules. Complex spheroids include a stromal component modeled by human endothelial cells (HUVEC) and fibroblasts modeled by human mesenchymal stem cells (MSCs). The concentration ranges selected for each drug and investigational agent were based upon clinically achievable concentrations if the clinical Cmax of the agent was known.
Compounds. The drugs and investigational agents: cirtuvivint (SM08502; NSC835563), CC-671 (NSC850746), vemurafenib (NSC761431), tapotoclax (NSC804041), sotorasib (NSC818433), adagrasib (NSC831453), MRTX-1133 (NSC836407), BAY2416964 (NSC825713), copanlisib (NSC816437), inavolisib (NSC800729), abemaciclib (NSC768073), osimertinib (NSC779217), entinostat (NSC756642), eltanexor (KPT-8602, NSC794443), venetoclax (NSC766270), ceralasertib (NSC777638), bortezomib (NSC756655), olaparib (NSC753686), talazoparib (NSC767125), alisertib (NSC759677), peposertib (NSC802822), gemcitabine (NSC613327), 5-fluorouracil (NSC19893), SN-38 (NSC673596), oxaliplatin (NSC266046), paclitaxel (NSC125973), and doxorubicin (NSC123127), were obtained from the National Cancer Institute (NCI) Developmental Therapeutics Program Chemical Repository. The FDA-approved anticancer drug set is available from the Developmental Therapeutics Program at https://dtp.cancer.gov/organization/dscb/obtaining/available plates.htm. […] The stock solutions were prepared in dimethyl sulfoxide (DMSO, Sigma-Aldrich, St. Louis, MO, cat. D2650), except for the platinum complexes which were prepared in saline (Quality Biological, Gaithersburg, MD, cat. 114-055-101), at 800-fold the tested concentration and stored at -70 degrees C prior to their use. All drugs and investigational agents were tested over a range starting from a high concentration at or near the clinical Cmax and decreasing in half-log increments. If the clinical Cmax for an agent had not been determined, the highest concentration tested was 10 microM.
Cell Culture. All cells were maintained in an incubator at 37 degrees C and 5% CO2 with 95% humidity. The PDC lines were cultured according to standard operating procedures established by the NCI PDMR. Briefly, all PDCs were thawed and cultured in Matrigel-coated flasks prepared with a working solution of 1X Ham's F-12 nutrient mix, without supplementation (Invitrogen, Waltham, MA, cat. 11765054), 100 U/mL penicillin-streptomycin (Invitrogen, cat. 15140122), and 2.5% Matrigel (Corning Inc., Corning, NY, cat. 354248) for the first three passages. The 947758-054-R-J2-PDC line was cultured in 6B/Colon 1A media, which includes advanced DMEM/F-12 (Thermo Fisher Scientific, cat. 12634028), 10 mM HEPES (Thermo Fisher Scientific, cat. 15630080), 1X GlutaMAX supplement (Thermo Fisher Scientific, cat. 35050061), 0.1 mg/mL primocin (InvivoGen, cat. ant-pm-2), 10% defined fetal bovine serum, heat inactivated (HyClone Laboratories Inc., cat. SH30070.03HI), 1.25 mM N-Acetyl-L-cysteine (Sigma-Aldrich, cat. A9165), 10 mM nicotinamide (Sigma-Aldrich, cat. N0636), 1X B-27 supplement (Thermo Fisher Scientific, cat. 17504044), 1X N-2 supplement (Thermo Fisher Scientific, cat. 17502048), and 10 microM Y-27632 dihydrochloride (Tocris Bioscience, cat. 1254). […]

For part of its entries the source gives two or more results. Only these are listed. The source may hold further records. The values listed for one entry are repeats (runs, samples, wells, individuals or studies). Counts like (3×) count equal records among those shown.
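Further: spheroids exposed to compounds for one week before readout.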

`CNC(=O)c1ccc(Nc2nc(OC3CCCC3)c3c(-c4ccc5nc(C)oc5c4)c[nH]c3n2)c(OC)c1`: the viability, T/C – broadly, the ratio of treated to control – runs as follows: (compound alone 0.1 µM) 57.4, 65.5, 62.7, 64.5, 61.9, 66, 42.8, 68.8, 61.7, 38, 67.9, 63.8%; (compound alone 0.316 µM) 76.1, 73.5, 79.4, 89.7, 92.9, 81.1, 70, 81.6, 97.6, 77.2, 66.2, 74%. Moreover, the IC50 – broadly, the concentration needed to halve the response being measured – (compound alone, run of 09/19/2023) is 893 nM, 1.72 µM, 1.56 µM, 805 nM, 6.76 µM, 2.08 µM, 493 nM, 2.92 µM, 3.9 µM, 3.92 µM, 1.17 µM, 959 nM.
In the case of `CN1CCN(c2cc(C(=O)Nc3cc4cc(-c5cnn(C)c5)ccc4cn3)ccn2)CC1`, the viability, T/C by setting is: (compound alone 0.0316 µM) 125, 119, 110, 105, 122 (2×), 154, 113, 133, 106, 115, 100%; (compound alone 0.1 µM) 157, 139, 167, 156, 178, 159, 147, 155, 176, 183, 137, 170%.
